32 sequences from article PMC12820563, “FoxP3 forms a head-to-head dimer in vivo and stabilizes its multimerization on adjacent microsatellites” can be followed below.

The other results are listed elsewhere or left out.

This test has as its target T1, MBP-FoxP1dN (Mus musculus, UniProt P58462 326-579).
T1 sequence: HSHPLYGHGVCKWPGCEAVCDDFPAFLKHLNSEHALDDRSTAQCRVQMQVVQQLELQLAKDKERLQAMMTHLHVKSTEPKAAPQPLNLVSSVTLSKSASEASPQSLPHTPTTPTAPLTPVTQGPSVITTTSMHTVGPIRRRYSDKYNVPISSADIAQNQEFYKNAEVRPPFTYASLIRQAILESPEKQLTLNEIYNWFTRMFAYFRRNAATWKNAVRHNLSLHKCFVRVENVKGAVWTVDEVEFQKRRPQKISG
Description: PD-seq (MBP pull-down with sequencing); 20 mM Tris-HCl pH 7.5, 100 mM NaCl, 1.5 mM MgCl2, 0.4 uM protein, 0.1 uM dsDNA library, 30 min, room temperature, amylose pull-down; high values mean tight binding. The conditions noted are these: protein: recombinant; tags: His6-MBP; chain copies: 2; dsDNA, one strand shown. The method, boiled down:
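Amylose resin was used to capture complexes formed during 30 min at room temperature in Tris pH 7.5 buffer with NaCl and MgCl2 between 0.4 µM His6-MBP-tagged mouse FoxP3 or FoxP1 fragment lacking the N-terminus, expressed in E. coli, and 0.1 µM Klenow-filled double-stranded degenerate DNA library. After three washes, the DNA was released with proteinase K, barcoded by PCR and sequenced on Illumina. Binding is pooled-replicate reads-per-million enrichment, pull-down over input.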
Consider “GATGATTGTTCTCCCAGCTGATGAATTCGCACTGTCGAGTAAACAAATTTTCCTAATCTTTCTGTTCAAGCGCCATCTAC”, for which the binding signal was 0.901 RPM ratio (pull-down/input).

As to “GATGATTGTTCTCCCAGCTGATGAATTGGAGCACTCGAGTAAACAAATTTTCCTAATCTTTCTGTTCAAGCGCCATCTAC”, the binding signal is 0.843 RPM ratio (pull-down/input).

Consider “GATGATTGTTCTCCCAGCTGATGAATTTTTAAGATCGAGTAAACAAATTTTCCTAATCTTTCTGTTCAAGCGCCATCTAC”, for which the binding signal is 0.944 RPM ratio (pull-down/input).

On to “GATGATTGTTCTCCCAGCTGATGAATTTCCAAAATCGAGTAAACAAATTTTCCTAATCTTTCTGTTCAAGCGCCATCTAC”, for which the binding signal was 1.05 RPM ratio (pull-down/input).

On to “GATGATTGTTCTCCCAGCTGATGAATTAGCATGTTCGAGTAAACAAATTTTCCTAATCTTTCTGTTCAAGCGCCATCTAC”, for which the binding signal was 0.983 RPM ratio (pull-down/input).

As for “GATGATTGTTCTCCCAGCTGATGAATTATAGGTCTCGAGTAAACAAATTTTCCTAATCTTTCTGTTCAAGCGCCATCTAC”, the binding signal was 0.808 RPM ratio (pull-down/input).

As for “GATGATTGTTCTCCCAGCTGATGAATTATTCACATCGAGTAAACAAATTTTCCTAATCTTTCTGTTCAAGCGCCATCTAC”, the binding signal is 1.18 RPM ratio (pull-down/input).

With “GATGATTGTTCTCCCAGCTGATGAATTGCGAGGATCGAGTAAACAAATTTTCCTAATCTTTCTGTTCAAGCGCCATCTAC”, the binding signal was 1.01 RPM ratio (pull-down/input).

With “GATGATTGTTCTCCCAGCTGATGAATTTCGACATTCGAGTAAACAAATTTTCCTAATCTTTCTGTTCAAGCGCCATCTAC”, the binding signal was 0.919 RPM ratio (pull-down/input).

On to “GATGATTGTTCTCCCAGCTGATGAATTATTTTAATCGAGTAAACAAATTTTCCTAATCTTTCTGTTCAAGCGCCATCTAC”, for which the binding signal is 1.28 RPM ratio (pull-down/input).

Take “GATGATTGTTCTCCCAGCTGATGAATTGTCGGCGTCGAGTAAACAAATTTTCCTAATCTTTCTGTTCAAGCGCCATCTAC”: the binding signal is 0.938 RPM ratio (pull-down/input).

For “GATGATTGTTCTCCCAGCTGATGAATTTCCCCCCTCGAGTAAACAAATTTTCCTAATCTTTCTGTTCAAGCGCCATCTAC”, the binding signal is 0.758 RPM ratio (pull-down/input).

Take “GATGATTGTTCTCCCAGCTGATGAATTCTACTAGTCGAGTAAACAAATTTTCCTAATCTTTCTGTTCAAGCGCCATCTAC”: the binding signal is 0.87 RPM ratio (pull-down/input).

For the sequence “GATGATTGTTCTCCCAGCTGATGAATTGCTGCTGTCGAGTAAACAAATTTTCCTAATCTTTCTGTTCAAGCGCCATCTAC”, the binding signal was 1.29 RPM ratio (pull-down/input).

On to “GATGATTGTTCTCCCAGCTGATGAATTCCTCGCTTCGAGTAAACAAATTTTCCTAATCTTTCTGTTCAAGCGCCATCTAC”, for which the binding signal is 0.888 RPM ratio (pull-down/input).

On to “GATGATTGTTCTCCCAGCTGATGAATTTGTATATTCGAGTAAACAAATTTTCCTAATCTTTCTGTTCAAGCGCCATCTAC”, for which the binding signal is 1.71 RPM ratio (pull-down/input).

On to “GATGATTGTTCTCCCAGCTGATGAATTTGGGAACTCGAGTAAACAAATTTTCCTAATCTTTCTGTTCAAGCGCCATCTAC”, for which the binding signal is 0.858 RPM ratio (pull-down/input).

In the case of “GATGATTGTTCTCCCAGCTGATGAATTCAACCAGTCGAGTAAACAAATTTTCCTAATCTTTCTGTTCAAGCGCCATCTAC”, the binding signal was 0.965 RPM ratio (pull-down/input).

“GATGATTGTTCTCCCAGCTGATGAATTCTTGGACTCGAGTAAACAAATTTTCCTAATCTTTCTGTTCAAGCGCCATCTAC”: the binding signal was 0.824 RPM ratio (pull-down/input).

On to “GATGATTGTTCTCCCAGCTGATGAATTTCTAACTTCGAGTAAACAAATTTTCCTAATCTTTCTGTTCAAGCGCCATCTAC”, for which the binding signal is 0.867 RPM ratio (pull-down/input).

For the sequence “GATGATTGTTCTCCCAGCTGATGAATTCAGTACCTCGAGTAAACAAATTTTCCTAATCTTTCTGTTCAAGCGCCATCTAC”, the binding signal is 0.838 RPM ratio (pull-down/input).

With “GATGATTGTTCTCCCAGCTGATGAATTATGCCGTTCGAGTAAACAAATTTTCCTAATCTTTCTGTTCAAGCGCCATCTAC”, the binding signal is 1.03 RPM ratio (pull-down/input).

“GATGATTGTTCTCCCAGCTGATGAATTCCATCGGTCGAGTAAACAAATTTTCCTAATCTTTCTGTTCAAGCGCCATCTAC”: the binding signal was 0.763 RPM ratio (pull-down/input).

In the case of “GATGATTGTTCTCCCAGCTGATGAATTGTTGCCGTCGAGTAAACAAATTTTCCTAATCTTTCTGTTCAAGCGCCATCTAC”, the binding signal is 1.3 RPM ratio (pull-down/input).

Regarding “GATGATTGTTCTCCCAGCTGATGAATTGTCTGCTTCGAGTAAACAAATTTTCCTAATCTTTCTGTTCAAGCGCCATCTAC”, the binding signal was 0.996 RPM ratio (pull-down/input).

With “GATGATTGTTCTCCCAGCTGATGAATTAAGTTCCTCGAGTAAACAAATTTTCCTAATCTTTCTGTTCAAGCGCCATCTAC”, the binding signal is 0.866 RPM ratio (pull-down/input).

As for “GATGATTGTTCTCCCAGCTGATGAATTATCGTTGTCGAGTAAACAAATTTTCCTAATCTTTCTGTTCAAGCGCCATCTAC”, the binding signal is 1.2 RPM ratio (pull-down/input).

For the sequence “GATGATTGTTCTCCCAGCTGATGAATTCACGCGCTCGAGTAAACAAATTTTCCTAATCTTTCTGTTCAAGCGCCATCTAC”, the binding signal was 0.992 RPM ratio (pull-down/input).

For the sequence “GATGATTGTTCTCCCAGCTGATGAATTAGCTACATCGAGTAAACAAATTTTCCTAATCTTTCTGTTCAAGCGCCATCTAC”, the binding signal was 1.1 RPM ratio (pull-down/input).

As for “GATGATTGTTCTCCCAGCTGATGAATTTACCTTGTCGAGTAAACAAATTTTCCTAATCTTTCTGTTCAAGCGCCATCTAC”, the binding signal was 1.15 RPM ratio (pull-down/input).

“GATGATTGTTCTCCCAGCTGATGAATTCCTACTCTCGAGTAAACAAATTTTCCTAATCTTTCTGTTCAAGCGCCATCTAC”: the binding signal is 0.856 RPM ratio (pull-down/input).

Turning to “GATGATTGTTCTCCCAGCTGATGAATTTAGGACTTCGAGTAAACAAATTTTCCTAATCTTTCTGTTCAAGCGCCATCTAC”, the binding signal is 0.86 RPM ratio (pull-down/input).
